Results published in PubChem BioAssay AID485344 (National Center for Advancing Translational Sciences (NCATS), 2010).
The campaign covered roughly 340,000 compounds. About 6,900 (2%) were called active. Cut-off read from the data, not from the text of the source: active = inhibition above about 30%; inactive = below that, where a call was filed. The list shows a part of the results, in another mix than the full data. Entries without a call were filed so in the source.
Note: 0% is about no effect.

What follows are compounds tested against D(2) dopamine receptor (Homo sapiens) (UniProt P14416) (assay: HTS Assay for Allosteric Antagonists of the Human D2 Dopamine Receptor: Primary Screen for Antagonists). Conditions: HEK293 TREx D2 cells, calcium flux, dopamine EC80; at 10 µM; stronger effect = higher value.
UniProt P14416, sequence (P14416 whole entry, looked up): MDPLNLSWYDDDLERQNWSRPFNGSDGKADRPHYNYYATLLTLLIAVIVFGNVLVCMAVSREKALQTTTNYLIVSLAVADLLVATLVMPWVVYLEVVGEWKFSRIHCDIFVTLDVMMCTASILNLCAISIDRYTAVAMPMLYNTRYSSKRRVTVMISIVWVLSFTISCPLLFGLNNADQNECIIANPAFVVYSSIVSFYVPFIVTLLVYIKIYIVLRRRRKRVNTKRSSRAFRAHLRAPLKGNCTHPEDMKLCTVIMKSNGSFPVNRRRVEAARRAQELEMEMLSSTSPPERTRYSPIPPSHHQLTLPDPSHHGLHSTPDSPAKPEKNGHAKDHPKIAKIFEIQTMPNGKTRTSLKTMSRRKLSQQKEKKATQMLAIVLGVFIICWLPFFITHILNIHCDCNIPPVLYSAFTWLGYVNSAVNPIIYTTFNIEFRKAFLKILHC
Summary of the method: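 Tetracycline-induced HEK293 TREx cells expressing D2 receptor forced-coupled to calcium signalling, loaded with no-wash calcium dye. Compounds added and calcium flux read 180 s, then dopamine added at EC80 and read a further 180 s.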
For COc1ccccc1-c1nc(CNC(=O)NC2CCCCC2)c(C)o1, the inhibition was 2.34%.
O=C(Cn1ncc2ccsc2c1=O)N1CCN(c2ccc(Cl)cc2)CC1 gave an inhibition of 12.9%.
CC1CCCCN1Cc1nc2c(c(=O)n(C)c(=O)n2C)n1Cc1ccc(Br)cc1 (stereo unspecified) was tested, and the inhibition was -10.5%.
Compound COc1ccc(NC(=O)c2c(-c3ccc(C)cc3)nnc3ccccc23)cc1OC has an inhibition of 2.72%.
With Cc1ccc2c(Sc3ccc(Cl)cc3)c(C(=O)N3CCCCC3)[nH]c2c1 the inhibition was -5.96%.
In the case of Clc1ccccc1OCCN1CCCCC1, the inhibition is reported as active: 44.3%.
With O=c1nc(/C=C/c2ccccc2C(F)(F)F)cc(C(F)(F)F)[nH]1 the inhibition was active: 32.2%.
Compound CC(Nc1ccc(-c2nc(-c3cccnc3)no2)cc1[N+](=O)[O-])c1ccccc1 (stereo unspecified) has an inhibition of -1.02%.
CCS(=O)(=O)c1ccc(C(=O)N2CCN(c3nc4c(OC)ccc(C)c4s3)CC2)cc1 gave an inhibition of -2.88%.
O=C(CSc1cn(CCNC(=O)c2ccccc2F)c2ccccc12)Nc1ccc2c(c1)OCCO2 was tested, and the inhibition was -10.2%.
With COCCn1c(C)cc(O)c(C(c2ccccc2)N2CCN(c3ccccc3F)CC2)c1=O (stereo unspecified) the inhibition was -20.2%.
For CN1CCN(C2=Cc3ccccc3Sc3cc(F)c(Cl)cc32)CC1, the inhibition was active: 73.5%.
COC(=O)c1cc(-c2ccc(Cl)cc2)c2c(=O)[nH]c(=O)n(C)c2n1 showed an inhibition of 4.19%.
In the case of CCOCCCNC(=O)C1CCN(c2nc3ccc(C)cc3[nH]2)CC1, the inhibition is reported as -6.18%.
Work on COc1ccc(NC(=O)CCc2c(C)nn(-c3ccc(N4CCCC4)nn3)c2C)cc1Cl yielded an inhibition of 5.15%.
Work on Cc1ccc(NC(=O)CCn2cccn2)c(C)c1 yielded an inhibition of 7.25%.
With COc1ccc(N2CCN(C(=O)Cn3cnc4sc(C)c(S(=O)(=O)N5CCCCC5)c4c3=O)CC2)cc1 the inhibition was -2.37%.
Cc1ccc(Cn2c(=O)n(CCc3ccccc3)c(=O)c3sc4ccccc4c32)cc1 showed an inhibition of -8.87%.
For O=C(CSc1nc2c([nH]c3ccccc32)c(=O)n1-c1ccccc1)Nc1cccc(C(F)(F)F)c1, the inhibition was 11.1%.
For Cc1ccc(N(C)C(=O)Cn2ncc3c([nH]c4ccccc43)c2=O)cc1C, the inhibition was 6.72%.
O=C(NC1CCCCC1)c1ccc(CSc2nc3ccncc3n2Cc2cccc(F)c2)cc1 gave an inhibition of -4.82%.
With CCc1ccc(CNC(=O)c2ccc3c(c2)c(C)c(C)n3Cc2ccccc2)cc1 the inhibition was 8.07%.
CCOC(=O)N1CCc2c(sc(NCc3cc(OC)ccc3OC)c2C(=O)Nc2cc(OC)ccc2OC)C1 was tested, and the inhibition was 1.41%.
CCOCCCNC(=O)C(c1ccc(C)cc1)N(Cc1ccc2c(c1)OCO2)C(=O)c1ccccc1O (stereo unspecified) gave an inhibition of -25.6%.
For CCc1nn(CC(=O)N2CCN(c3cccc(C)c3)C(C)C2)c(=O)c2cc3sccc3n12 (stereo unspecified), the inhibition was 1.84%.
With COc1ccccc1C(=O)NC1(C(F)(F)F)NC(=O)N(CCc2ccccc2)C1=O (stereo unspecified) the inhibition was 1.06%.
Work on Cc1ccc(NC(=O)n2ncc3c(C)cccc32)c(C)c1 yielded an inhibition of 20.4%.
For O=C(CSc1nnc2scc(-c3ccc(Cl)cc3)n12)Nc1ccc(F)cc1, the inhibition was 8.36%.
For COc1ccc(OC)c(N(C(=O)c2snc(C(N)=O)c2N)C(C(=O)NCc2ccccc2)c2ccc(O)cc2)c1 (stereo unspecified), the inhibition was active: 43.4%.
Cc1cc(C)c(NC(=O)CSc2nc(=O)n(Cc3ccncc3)c3c2CCC3)c(C)c1 was tested, and the inhibition was -1.7%.
Work on Cc1ccc(Nc2c(-c3cccnc3)nc3ccc(C)cn23)cc1 yielded an inhibition of 13.1%.
For COc1cccc(C2=CC(c3ccccc3F)n3ncc(C(=O)Nc4ccc(F)cc4)c3N2)c1 (stereo unspecified), the inhibition was 19%.
In the case of O=C(NCCCN1CCCC1=O)Nc1ccc([N+](=O)[O-])cc1, the inhibition is reported as active: 34.8%.
COc1cc(C(C)=O)ccc1OCC(O)CN1CCN(c2cc(C)cc(C)c2)CC1 (stereo unspecified) was tested, and the inhibition was active: 57.9%.
CCOC(=O)Cn1c(C)c(Br)c(=O)c2cccc(C)c21 was tested, and the inhibition was active: 31.2%.
CCCN(C(=O)c1cc2c(=O)oc3ccc(C)cc3c2s1)c1ccc(OCC)cc1 showed an inhibition of 14.6%.
CCCCN1C(=O)C(O)(CC(=O)c2ccc(CC)cc2)c2cc(Br)ccc21 (stereo unspecified) gave an inhibition of -5.38%.
With COc1cccc(CNC(=O)Cn2nc(C)n3c(cc4cc(C)ccc43)c2=O)c1OC the inhibition was 1.3%.
CCSc1nc(-c2cccc(Cl)c2)nc2c1Cc1c(CO)cnc(C)c1O2 was tested, and the inhibition was -5.31%.
COc1cccc(-c2nc(Cn3c(=O)cc(C)c4c(C)nn(-c5ccccc5)c43)c(C)o2)c1OC gave an inhibition of 0.923%.
CCOc1ccc2nc(N(Cc3cccnc3)C(=O)c3cccs3)sc2c1 gave an inhibition of 4.85%.
For Cc1c(Cl)ccc2sc(N3CCN(C(=O)CCS(=O)(=O)c4ccc(F)cc4)CC3)nc12, the inhibition was 0.819%.
For COc1ccc(-c2nc3ccccc3n2Cc2ccccc2)cc1, the inhibition was -5.28%.
In the case of CCCCCOc1ccc(NC(=O)Cn2c(-c3nonc3N)nc3ccccc32)cc1, the inhibition is reported as 21.8%.
CC1=C(C(=O)Nc2ccccc2)C(c2ccccn2)n2nc(SCc3ccccc3)nc2N1 (stereo unspecified) gave an inhibition of 8.72%.
Work on Cc1ccc2c(c1)C(c1ccccc1)N(C(=O)COc1ccc(Cl)cc1Cl)CC(=O)N2 (stereo unspecified) yielded an inhibition of -3.44%.
COC(=O)c1ccccc1NS(=O)(=O)c1cc2c3c(c1)CC(=O)N3CCC2 gave an inhibition of 8.15%.
CCN(CC)S(=O)(=O)c1ccc2c(c1)N(CC(=O)Nc1ccc(Cl)cc1)C(=O)C1CCCN21 (stereo unspecified) gave an inhibition of 3.73%.
With Oc1oc(-c2ccccc2)nc1C=NCc1ccncc1 the inhibition was active: 30.7%.
CC(C)(C)c1ccc(C(=O)NCC(c2ccco2)S(=O)(=O)c2ccccc2)cc1 (stereo unspecified) gave an inhibition of -13%.
COc1ccccc1CNC(=O)C(=O)NCC(c1ccco1)S(=O)(=O)c1ccc(F)cc1 (stereo unspecified) gave an inhibition of -11.4%.
COc1ccc(C)c2sc(NC(=O)c3ccc(S(=O)(=O)N4CCOCC4)cc3)nc12 gave an inhibition of -16%.
Compound COc1ccc(C(=O)Oc2c(Sc3ccccc3)c(C)nn2-c2ccccc2)c(OC)c1 has an inhibition of -0.473%.
COc1cccc(N2CCN(C(=O)c3cnc4c(-c5ccc(F)cc5)c(C)nn4c3C)CC2)c1 showed an inhibition of 20.2%.
For CCOc1ccc(NC(=O)c2cc(-c3ccc(C)c(F)c3)on2)c([N+](=O)[O-])c1, the inhibition was 16.7%.
Work on Cc1cccc(C)c1OCCn1c(CCNC(=O)C2CCCCC2)nc2ccccc21 yielded an inhibition of 6.5%.
In the case of CCc1c(O)nc(SCC(=O)N(CC)CC)[nH]c1=O, the inhibition is reported as active: 34.1%.
In the case of CC(C)OC(=O)c1c(NC(=O)c2cccc(C(F)(F)F)c2)sc2c1CCCC2, the inhibition is reported as -4.94%.
For O=C1CC(c2ccccc2)Sc2ccccc2N1Cc1ccccc1F (stereo unspecified), the inhibition was 10.8%.
Compound COc1ccc(NC(=O)Cn2ccn(-c3ccc(F)c(F)c3)c(=O)c2=O)cc1Cl has an inhibition of -15.4%.
In the case of COc1ccccc1NC(=O)NC1CCS(=O)(=O)C1 (stereo unspecified), the inhibition is reported as active: 39.2%.
Work on COc1ccc(CNC(=O)CCC2N=C3c4ccccc4N=C(SCC(=O)NCCc4ccc(OC)c(OC)c4)N3C2=O)cc1 (stereo unspecified) yielded an inhibition of -2.39%.
COc1ccc(CNC(=O)c2cc3c(=O)n(Cc4ccco4)ccc3nc2C)c(OC)c1 was tested, and the inhibition was 1.84%.
CC(=O)N1CCCc2cc(S(=O)(=O)N(C)CC(=O)Nc3ccc(C(C)C)cc3)ccc21 gave an inhibition of 14.9%.
Compound CC(C)c1ccc(OCC(=O)Nc2ccc(S(=O)(=O)Nc3ncccn3)cc2)cc1 has an inhibition of 1.54%.
O=C(O)CCSc1nc(C(F)(F)F)cc(=O)n1-c1ccccc1 was tested, and the inhibition was active: 32.7%.
Work on Cn1cc(-c2cc3n(n2)CCC(=O)N3CCCC(=O)Nc2ccc(Cl)cc2)c2ccccc21 yielded an inhibition of 19.3%.
Cc1ccccc1Cn1c2ccccc2c2cnn(CC(=O)NCc3cccc(Cl)c3)c(=O)c21 showed an inhibition of 1.22%.
Compound CCN(CC)c1ccc(NC(=O)COCc2cc(-c3ccc4c(c3)OCO4)on2)c(C)c1 has an inhibition of -5.55%.
In the case of Cc1ccc(N2CCN(C(=O)c3c(C)oc4ncn(C)c(=O)c34)CC2)c(C)c1, the inhibition is reported as -4.35%.
Work on Cc1nc(-n2nc(C)c(Cc3ccc(Cl)cc3)c2C)sc1C(=O)N1CCC(C)CC1 yielded an inhibition of 14.1%.
Cc1ccc(NC(=O)CSc2nc3c(oc4ccccc43)c(=O)n2Cc2ccco2)cc1F gave an inhibition of 2.07%.
COc1ccc(OC)c(CCNc2ncnc3onc(-c4ccc(Cl)cc4)c23)c1 was tested, and the inhibition was -6.43%.
Cc1cccc(CNC(=O)c2cnc3c(-c4cccc(C)c4)c(C)nn3c2C)c1 gave an inhibition of -13.1%.
CCCCC(=O)N1c2ccccc2C(C)(c2ccccc2)CC1(C)C (stereo unspecified) showed an inhibition of 22.8%.
CCc1ccc(S(=O)(=O)NCCc2cn3ccsc3n2)cc1 was tested, and the inhibition was -25.7%.
In the case of CC(=O)N1CCCc2cc(S(=O)(=O)N(C)CC(=O)Nc3cccc(Cl)c3C)ccc21, the inhibition is reported as 16.1%.
In the case of Cn1c(=O)c2cc(S(=O)(=O)NC(Cc3ccccc3)C(=O)Nc3ccc(F)cc3)ccc2n(C)c1=O (stereo unspecified), the inhibition is reported as 1.99%.
Compound O=C(c1ccccc1Cl)n1nc(-c2ccco2)nc1NCc1cccs1 has an inhibition of 8.76%.
For CCOC(=O)CN(C(=O)CSc1nnc2c(n1)[nH]c1ccc(OC)cc12)c1ccc(F)cc1, the inhibition was active: 79.7%.
Work on CCOc1ccccc1NC(=O)N1CCN(S(=O)(=O)c2ccc3c(ccn3C)c2)CC1 yielded an inhibition of 2.07%.
Work on CC(C)c1ccccc1NC(=O)CSc1nnc(COc2ccccc2Cl)o1 yielded an inhibition of 0.498%.
In the case of CCN(c1ccc(C)cc1)S(=O)(=O)c1nnc(NC(=O)c2cccs2)s1, the inhibition is reported as 0.292%.
Cc1ccc(-c2ccc(CCC(=O)O)n2-c2ccc(C(C)C)cc2)cc1 was tested, and the inhibition was 19.7%.
Work on COc1ccccc1CNC(=O)Cn1ncc2c(C)n(Cc3ccccc3Cl)c(C)c2c1=O yielded an inhibition of -2.95%.
Compound Nc1c(-c2nc(-c3ccccc3)no2)nnn1CC(=O)Nc1ccccc1 has an inhibition of 6.27%.
For CCN(CC)CCNC(=O)c1cc2c(=O)[nH]c3ccc(C)cc3c2s1, the inhibition was 2.55%.
In the case of Clc1ccc(OCCOCCN2CCCCC2)c(Br)c1, the inhibition is reported as active: 76.9%.
With Cc1ccc(NC(=O)/C(C#N)=C\c2ccc(Cl)cc2Cl)cc1C the inhibition was -0.425%.
Work on CCOc1ccccc1N1CC(c2nc3ccccc3n2CCOc2ccc(C(C)(C)C)cc2)CC1=O (stereo unspecified) yielded an inhibition of 12%.
Compound CCN(c1cc(C)cc(C)c1)S(=O)(=O)c1nnc(NC(=O)c2cccc(F)c2)s1 has an inhibition of 5.28%.
For CCCOc1ccc(C2C(=O)N(C3CCCCCC3)CC(=O)N2CCCOCC)cc1OC (stereo unspecified), the inhibition was 19%.
With CC1Cc2ccccc2N1C(=O)CN1CCN(Cc2ccccc2)CC1 (stereo unspecified) the inhibition was active: 41%.
CCOc1ccccc1N(C)C(=O)Cn1nc(Cc2cccnc2)c2ccccc2c1=O was tested, and the inhibition was -19.1%.
With COC(=O)CSc1nnc2n(-c3ccccc3)c(=O)c3c4c(sc3n12)COC(C(C)C)C4 (stereo unspecified) the inhibition was 14.8%.
COc1ccc2nc(NC(=O)C3CC(=O)N(c4ccccc4)C3)sc2c1 (stereo unspecified) was tested, and the inhibition was active: 31.2%.
